Measurements from PubChem BioAssay AID662 (National Center for Advancing Translational Sciences (NCATS), 2007).
Out of some 71,000 compounds screened, about 1,800 (2.5%) were called active. This list was built around the results that the source calls inconclusive (neither active nor inactive); the mix of calls is not that of the screen. Calls come from the whole dose curve; as a rule, active = well fitted activation curve with a large enough effect in the signal ratio, with a control signal flat (not every such curve was filed as active); inconclusive = small, poorly fitted or top-dose-only effect, or effect the other way, or a change in a side signal; inactive = flat fitted curve, though single readings scatter; the % refers to the signal ratio. Potencies beside an inconclusive call are fits to weak or partial responses and may not hold up.

assay: Cell signaling CRE-BLA (Fsk stim); conditions: CHO CRE-bla reporter (cAMP response element driving beta-lactamase), forskolin EC10, beta-lactamase ratio; activity change, negative = inhibition: at 38.2 µM (top of the series) unless noted; for activity change, negative = inhibition: % of control where 0% means no effect
Method in brief: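 Modulation of forskolin signalling: compounds in titration series added with EC10 NKH 477 to CHO cells carrying a CRE-driven beta-lactamase reporter, 3 h, 37C. CCF4 FRET ratio (460/530 nm, ex 405 nm) gives %activity and AC50.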
Potency is the fitted concentration of half-maximal effect; tags give direction and shape of the fitted curve.

Row | SMILES | activity change, negative = inhibition | Potency
1 | Cc1cc(-c2nc3ncccc3o2)ccc1NC(=O)CC(C)C | inactive: -9.52% | 
2 | COc1ccc(S(=O)(=O)NC(CC(=O)N2CCc3ccccc32)c2ccco2)cc1 (configuration not stated) | inconclusive: -23.8% | 
3 | O=C(Cn1cnc2sc(-c3ccccc3)cc2c1=O)N1CCOCC1 | inconclusive: 19.6% | 
4 | Cc1cnc(CNc2ccnc(-c3ccccc3Cl)n2)cn1 | inconclusive: 16.6% | 
5 | CCOc1ccc2nc(NC(=O)CSc3nnnn3C3CCCCC3)sc2c1 | inactive: -1.75% | 
6 | COc1ccc(-c2cc(C(=O)NCC(C)C)no2)cc1 |  | inconclusive: 0.501 µM [falling, single point]
7 | CCOc1cc(C(=O)CSc2nnc(CNc3ccc(Cl)cc3)o2)ccc1NC(=O)CC | inconclusive: -10.1% [cytotoxic] | 
8 | COCCSc1nc2c(c(=O)[nH]c(=O)n2C)n1Cc1cccc(C)c1 |  | inconclusive: 12.6 µM [rising, partial curve]
9 | N=C(N)SCCc1ccccn1 |  | inconclusive: 5.01 µM [rising, single point]
10 | c1cn(-c2ccnc(-c3ccc4c(c3)OCO4)n2)cn1 |  | inconclusive: 10 µM [rising, partial curve]
11 | COc1ccc(NC(=O)CSc2nc3c(c(=O)n2-c2ccccc2)SCC3)c(OC)c1 | inconclusive: 14.9% | 
12 | Cc1cccc(-n2nnc(C(=O)NCc3ccc4c(c3)OCO4)c2N)c1 |  | inconclusive: 10 µM [rising, single point]
13 | CC1=C(C(=O)Nc2cccc(C)n2)C(c2ccc3c(c2)OCO3)C2=C(CC(c3ccco3)CC2=O)N1 (configuration not stated) |  | inconclusive: 10 µM [rising, partial curve]
14 | CC1CCCCC1NS(=O)(=O)c1ccc(S(=O)(=O)N2CCCC2)cc1 (configuration not stated) |  | inconclusive: 12.6 µM [rising, single point]
15 | COC(=O)c1[nH]c(C)c(/C(O)=C2\C(=O)C(=O)N(CCN(C)C)C2c2ccc(OC)cc2)c1C (configuration not stated) | inconclusive: 8.25% | 
16 | CCCCN(CC)CCNC(=O)Cn1cnc2sc(C)c(S(=O)(=O)N3CCOCC3)c2c1=O | inconclusive: -0.991% | 
17 | COC(=O)c1c(NC(=O)c2ccc(C)o2)sc2c1CCCCC2 | inconclusive: 13.6% | 
18 | Cc1cc(C)nc(Sc2ccc3nnc(C(F)(F)C(F)(F)C(F)(F)F)n3n2)n1 | inactive: -13.7% | 
19 | CC1Cn2c(nnc2-c2cc3ccccc3cc2O)S1 (configuration not stated) | inconclusive: 8.14% | 
20 | COc1ccc(NC(=O)Cn2c(=O)sc3ccccc32)c(OC)c1 | inactive: -13.7% | 
21 | CC(C)N1C[C@@]23C=C[C@@H](O2)C(C(=O)OCc2ccccc2)[C@H]3C1=O (some centres not stated) | inactive: 0.907% | 

Row | SMILES | activity change, negative = inhibition | Potency
22 | CCN(CC)CCOC(=O)[C@@H](Cc1cccc2ccccc12)C[C@@H]1CCCO1 | inactive: -5.67% [at 17.1 µM] | 
23 | Cc1cc(C)n2nc(SCc3ncc(-c4ccccc4)o3)nc2n1 |  | inconclusive: 6.31 µM [rising, partial curve]
24 | CN(C)c1ncc2nc(-c3ccccc3)c(=O)n(Cc3ccc(F)cc3)c2n1 |  | inconclusive: 1 µM [rising, full curve]
25 | N#Cc1nc(COc2ccccc2F)oc1NCCc1ccccc1 | inconclusive: 1.97% | 
26 | Cc1ccc(C(=O)CSc2nnc(-c3cccnc3)n2N)cc1 |  | inconclusive: 10 µM [rising, single point]
27 | COc1cccc(-c2nnc(SCC(=O)Nc3ccc(OC)c(OC)c3)n2N)c1 | inactive: -2% | 
28 | Cc1cc(NO)nc(-c2ccc(Br)cc2)n1 | inactive: -2.9% | 
29 | C=CCN1CCc2c(cc(O)c(O)c2Cl)[C@H](c2ccccc2)C1 | inactive: -16.2% | 
30 | Cn1ccnc1SC(=O)N1c2ccccc2Sc2ccccc21 | inconclusive: -18.4% [at 7.6 µM] | 
31 | CCCCOc1ccc(C(C)(O)CCN2CCOCC2)cc1 (configuration not stated) | inconclusive: -1.23% | 
32 | CCOC(=O)c1c(CN2CCC(C)CC2)oc2ccc(OC)cc12 |  | inconclusive: 12.6 µM [rising, single point]
33 | O=C(CCc1nc(-c2ccccc2F)no1)Nc1ccc(Oc2ccccc2)cc1 |  | inconclusive: 12.6 µM [rising, partial curve]
34 | CC(=O)NCCNc1ncnc2ccc(-c3ccccc3C#N)cc12 |  | inconclusive: 20 µM [rising, single point]
35 | CN1C2CCC1CC(OC(=O)c1c[nH]c3ccccc13)C2 (configuration not stated) |  | inconclusive: 0.00316 µM [falling, full curve, poor fit]
36 | COC(=O)COc1cccc(NC(=O)c2ccccc2)c1 | inconclusive: 10.9% | 
37 | COc1ccccc1-c1ccc2ncnc(N3CCOCC3)c2c1 | inconclusive: -2.21% | 
38 | COc1cccc(Nc2ncc3nc(-c4cc(F)cc(F)c4)c(=O)n(C4CC4)c3n2)c1 | inconclusive: 8.41% | 
39 | COc1ccccc1NC(=O)C(C)NS(=O)(=O)c1ccc(Cl)cc1 (configuration not stated) | inactive: -25.1% | 
40 | O=C(c1ccncc1)N1CCC[C@@]2(CCN(Cc3ccccc3)C2)C1 | inactive: -9.94% | 
41 | CCOC(=O)c1cn(CC)c2cc(N3CCOCC3)c(F)cc2c1=O |  | inconclusive: 0.0251 µM [rising, full curve, poor fit]
42 | CCCc1cc(C(N)=O)c(NC(=O)c2ccoc2C)s1 |  | active: 10 µM

Row | SMILES | activity change, negative = inhibition | Potency
43 | OCc1cc(CO)c(O)c(CCc2ccccc2)n1 | inactive: -3.82% | 
44 | COc1ccc(OC)c(C(C(=O)NCc2ccco2)N(C(=O)Cn2nnc3ccccc32)C(C)C)c1 (configuration not stated) | inconclusive: -25.7% | 
45 | CC(C)=CCNc1ncnc2c1c(C#N)cn2[C@H]1O[C@@H](CO)[C@@H](O)[C@@H]1O | inactive: 1.55% [at 7.6 µM] | 
46 | CC(=O)Nc1ccc(S(=O)(=O)N(C)CC(=O)NC2=NCCS2)cc1 |  | inconclusive: 5.01 µM [falling, single point]
47 | O=C(CCn1nnc2ccccc2c1=O)N[C@@H](Cc1ccccc1)C(=O)O | inconclusive: -13% | 
48 | CCc1c(C)nc2cc(-c3cc(OC)cc(OC)c3)nn2c1N1CCCC1 |  | active: 2.51 µM
49 | CCN1C(=O)/C(=C2/C=CC=CN2C)SC1=S | inconclusive: -14% [at 7.6 µM] | 
50 | COC(=O)c1cc(Br)c(=O)n(CC(C)C)c1 |  | inconclusive: 31.6 µM [rising, single point]
51 | COc1ccc(N2C(=O)CC(Sc3nnc(-c4ccccc4)o3)C2=O)cc1 (configuration not stated) | inconclusive: -3.51% [at 7.6 µM] | 
52 | COc1ccc(C)cc1NC(=O)c1cnc2sccn2c1=O |  | inconclusive: 20 µM [rising, partial curve]
53 | COc1ccc(-c2nc3cnc(OC)nc3n(C[C@H]3CCCO3)c2=O)cc1 |  | active: 10 µM
54 | CCCCc1ccc(Nc2ncnc3nc[nH]c23)cc1 |  | inconclusive: 12.6 µM [rising, partial curve]
55 | Nc1ccc2oc(-c3ccccn3)nc2c1 | inactive: 18% | 
56 | CCc1ccccc1OC[C@@H](O)CN[C@H]1CCCc2ccccc21 | inconclusive: 43.3% [cytotoxic] | 
57 | CC(=O)N1CCc2cc(S(=O)(=O)NCCC(=O)Nc3ccc4c(c3)OCCO4)ccc21 |  | inconclusive: 5.01 µM [falling, single point]
58 | O=C(OCCN1C(=O)c2ccccc2C1=O)c1cccc(OC(F)F)c1 | inconclusive: 18.9% | 
59 | COc1ccc(CCN(C)CCC[C@@](C#N)(c2cc(OC)c(OC)c(OC)c2)C(C)C)cc1OC | inactive: 1.03% | 
60 | Cn1c(=O)oc2cc(S(=O)(=O)Nc3ccc4c(c3)OCCO4)ccc21 | inconclusive: 8.72% | 
61 | CC(C)Nc1oc(-c2cccc3ccccc23)nc1C#N |  | active: 12.6 µM
62 | CC(C)OC(=O)c1nnn(-c2nonc2N)c1CN1CCc2ccccc2C1 |  | inconclusive: 10 µM [falling, partial curve]
63 | CCC(C)(C(=O)NC1CCCCC1)N(Cc1ccco1)C(=O)c1ccc2c(c1)OCO2 (configuration not stated) | inactive: -6.4% | 

Row | SMILES | activity change, negative = inhibition | Potency
64 | Cc1ccc(CCNC(=O)NC(C)(C)C)cc1 | inconclusive: 17.9% | 
65 | CCc1cc2cc(C)ccc2nc1SCC(=O)N1CCN(C(=O)c2ccco2)CC1 |  | inconclusive: 25.1 µM [rising, single point]
66 | CCCc1nnc(SCCSc2nnc(CCC)n2N)n1N | inactive: 0.584% | 
67 | Oc1ccc(N=Cc2ccc(O)c(O)c2)cc1 | inconclusive: -20.5% | 
68 | COc1ccc(NC(=O)N2CCC3(CC2)CCN(C(=O)c2ccncc2)CC3)cc1 | inactive: 2.43% | 
69 | O=C1C=C(NCC2CCCO2)C2(CCCCC2)O1 (configuration not stated) | inconclusive: 17.6% | 
70 | CCOc1ncccc1C(=O)Nc1ccc(-c2cn3ccsc3n2)cc1 |  | inconclusive: 3.98 µM [rising, partial curve]
71 | COC(=O)CS(=O)(=O)c1nnc([C@H](Cc2ccccc2)NC(=O)OC(C)(C)C)o1 |  | inconclusive: 10 µM [falling, single point]
72 | CC(CCc1ccccc1)C(=O)NO (configuration not stated) |  | inconclusive: 0.316 µM [rising, partial curve]
73 | CC(C)n1c(=N)c(C(=O)NCCc2ccccc2)cc2c(=O)n3ccccc3nc21 |  | active: 10 µM
74 | O=C(O)c1ccc(NCc2cccnc2)cc1 | inactive: -2.25% | 
75 | Cc1cc(Cl)c(S(=O)(=O)NCC2CCCO2)cc1OCC(N)=O (configuration not stated) | inconclusive: -12% | 
76 | COc1ccc(N2CCN(Cc3nc(-c4ccc(Cl)cc4Cl)no3)CC2)cc1 | inactive: -5.67% | 
77 | CCC(Sc1nc(=O)cc(N)n1-c1ccccc1)C(=O)Nc1cc(C)on1 (configuration not stated) |  | inconclusive: 0.02 µM [rising, full curve, poor fit]
78 | CN1CCN(C2=Nc3ccccc3Oc3ccc(Cl)cc32)CC1 | inconclusive: -5.68% | 
79 | C=CCn1c(SCC(=O)c2ccc(OC)cc2)nnc1-c1cc2cccc(OC)c2o1 | inactive: 16.9% | 
80 | CCOC(=O)C1CCN(C(=O)C2CCN(c3nc4ccc(OC)cc4s3)CC2)CC1 | inactive: -4.47% | 
81 | Cc1cccc2sc(NC(=O)CN(C)S(=O)(=O)c3ccc(Br)s3)nc12 | inconclusive: -23.6% | 
82 | c1ncc(-c2ccc3c(c2)OCO3)c(NCCc2cnc[nH]2)n1 | inconclusive: -22.8% | 
